# Results published in a collection of fitness landscapes (doi:10.1016/j.celrep.2020.107928).
# Over roughly 81,000 sequences, “one-hybrid fitness for binding NBS DNA” has its median near -0.1; the highest 2% begin near 0.36. This is one part of the list.
# B1: Caulobacter ParB omega fusion; a variant is named by its letters at X, in order, B8GW30 (parent)
# chain: MESVVVGEPGMSEGRRGLGRGLSALLGEVDAAPAQAPGEQLGGSREAPIEILQRNPDQPRRTFREEDLEDLSNSIREKGVLQPILVRPSPDTAGEYQIVAGERAWRAAQRAGLKTVPIMVRELDDLAVLEIGIIENVQRADLNVLEEALSYKVLMEKFERTQENIAQTIGKSXSHVANXMRLLXLPDEVQSYLVSGELTAXHARAIAAAADPVALAKQIIEGGLSVRETEALARKAPNLSAGKSKGGRPPRVKDTDTQALESDLSSVLGLDVSIDHRGSTGTLTITYATLEQLDDLCNRLTRGI
# Variants of: B1
# Assay: one-hybrid fitness for binding NBS DNA (the Noc-binding site; scaled: cognate 1, non-cognate 0); higher = stronger binding
# Conditions: with NBS DNA site
# Summary of the method: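 Pre- and post-selection plasmids were Illumina-sequenced, three replicate libraries were pooled, and any variant with under 10 reads was removed. The libraries were Caulobacter ParB with four specificity codons randomised, selected in E. coli USO through a HIS3 reporter whose site is 19 bp from the promoter. Cells grew 48 hours at 37°C on M9 without histidine, with 0.1 mM IPTG and 5 mM 3-AT. Fitness is the log change in variant-to-wild-type read ratio, rescaled against cognate and non-cognate.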
row,Variant,one-hybrid fitness for binding NBS DNA
1,PGSC,≤ 0.2
2,MQAG,≤ 0.2
3,CPVF,≤ 0.2
4,TTYG,≤ 0.2
5,RGFH,≤ 0.2
6,KSME,≤ 0.2
7,DYYI,≤ 0.2
8,TLDA,≤ 0.2
9,CRII,≤ 0.2
10,WPRC,≤ 0.2
11,FKLL,≤ 0.2
12,LRHH,≤ 0.2
13,ANWR,≤ 0.2
14,TMGR,≤ 0.2
15,MQTL,≤ 0.2
16,GNNW,≤ 0.2
17,QTYF,≤ 0.2
18,AVTI,≤ 0.2
19,ECNI,≤ 0.2
20,YVRT,≤ 0.2
21,SELC,≤ 0.2
22,LAFQ,≤ 0.2
23,MTRN,≤ 0.2
24,MLPP,≤ 0.2

row,Variant,one-hybrid fitness for binding NBS DNA
1,TAFC,≤ 0.2
2,ERWS,≤ 0.2
3,SSSE,≤ 0.2
4,TNKS,≤ 0.2
5,HRSF,≤ 0.2
6,FYVW,≤ 0.2
7,HWLL,≤ 0.2
8,MHHS,≤ 0.2
9,VKSQ,≤ 0.2
10,PQQT,≤ 0.2
11,QVEG,≤ 0.2
12,PGHT,≤ 0.2
13,STNA,≤ 0.2
14,YSKA,≤ 0.2
15,LLFG,≤ 0.2
16,TNIW,≤ 0.2
17,VGKV,≤ 0.2
18,RANG,≤ 0.2
19,NHSF,≤ 0.2
20,PRLC,≤ 0.2
21,ELRR,≤ 0.2
22,RQDR,≤ 0.2
23,QPGP,≤ 0.2
24,TTSM,≤ 0.2

row,Variant,one-hybrid fitness for binding NBS DNA
1,TAII,≤ 0.2
2,TAKP,≤ 0.2
3,HRRR,0.323
4,SRPL,≤ 0.2
5,CAYF,≤ 0.2
6,VDFT,≤ 0.2
7,DDMC,≤ 0.2
8,RCYR,0.518
9,FTPT,≤ 0.2
10,SCLP,≤ 0.2
11,TMTM,≤ 0.2
12,FVHL,≤ 0.2
13,TPAL,≤ 0.2
14,TFDY,≤ 0.2
15,GADR,≤ 0.2
16,VDQK,≤ 0.2
17,GILS,≤ 0.2
18,GQSV,≤ 0.2
19,DFWS,≤ 0.2
20,KGPS,≤ 0.2
21,TITY,≤ 0.2
22,RSTV,≤ 0.2
23,LPIS,≤ 0.2
24,GRCN,≤ 0.2

row,Variant,one-hybrid fitness for binding NBS DNA
1,APVQ,≤ 0.2
2,FFCR,≤ 0.2
3,QLDL,≤ 0.2
4,DAFR,≤ 0.2
5,QQHD,≤ 0.2
6,CPLR,≤ 0.2
7,HAGC,≤ 0.2
8,HYSY,≤ 0.2
9,YATP,≤ 0.2
10,MGES,≤ 0.2
11,PSFY,≤ 0.2
12,KRPR,0.239
13,TLFS,≤ 0.2
14,PFLR,≤ 0.2
15,LNCA,≤ 0.2
16,MCHS,≤ 0.2
17,CTRD,≤ 0.2
18,QRTK,0.414
19,SYSV,≤ 0.2
20,LPFV,≤ 0.2
21,YTSP,≤ 0.2
22,GDAR,≤ 0.2
23,NAKC,≤ 0.2
24,YQPT,≤ 0.2

row,Variant,one-hybrid fitness for binding NBS DNA
1,YGTM,≤ 0.2
2,PIFE,≤ 0.2
3,SERD,≤ 0.2
4,PYHP,≤ 0.2
5,MYHR,≤ 0.2
6,HTMG,≤ 0.2
7,RHVV,≤ 0.2
8,LSDA,≤ 0.2
9,IIGF,≤ 0.2
10,TWNL,≤ 0.2
11,RNRT,0.391
12,GMVG,≤ 0.2
13,GSHG,≤ 0.2
14,ANSV,≤ 0.2
15,ANSY,≤ 0.2
16,SSDI,≤ 0.2
17,ICQG,≤ 0.2
18,PKYV,≤ 0.2
19,RQHW,≤ 0.2
20,PLVG,≤ 0.2
21,ILWS,≤ 0.2
22,PVTP,≤ 0.2
23,IACY,≤ 0.2
24,PTQP,≤ 0.2

row,Variant,one-hybrid fitness for binding NBS DNA
1,FKNG,≤ 0.2
2,VQHG,≤ 0.2
3,EPGG,≤ 0.2
4,ITNQ,≤ 0.2
5,GKKW,≤ 0.2
6,HHIS,≤ 0.2
7,RVVK,≤ 0.2
8,HEKE,≤ 0.2
9,NCDT,≤ 0.2
10,GTAV,≤ 0.2
11,WTNF,≤ 0.2
12,NVRY,≤ 0.2
13,MQHN,≤ 0.2
14,VQHC,≤ 0.2
15,ICTS,≤ 0.2
16,IQDG,≤ 0.2
17,GQKG,≤ 0.2
18,QKGL,≤ 0.2
19,TPGR,≤ 0.2
20,HHDY,0.251
21,FKQS,≤ 0.2
22,QRDT,0.671
23,DRPF,≤ 0.2
24,ALSM,≤ 0.2

row,Variant,one-hybrid fitness for binding NBS DNA
1,TWFP,≤ 0.2
2,RFGH,≤ 0.2
3,RWWS,≤ 0.2
4,HCRG,≤ 0.2
5,SPQK,≤ 0.2
6,RQMM,≤ 0.2
7,LDMP,≤ 0.2
8,FLFV,≤ 0.2
9,QPDI,≤ 0.2
10,NAEC,≤ 0.2
11,AIGY,≤ 0.2
12,PFHG,≤ 0.2
13,AAKS,≤ 0.2
14,DPTY,≤ 0.2
15,ASWS,≤ 0.2
16,FPNC,≤ 0.2
17,SSKH,≤ 0.2
18,MDAT,≤ 0.2
19,QVIQ,≤ 0.2
20,GIRC,≤ 0.2
21,LSIN,≤ 0.2
22,HDLY,≤ 0.2
23,APGS,≤ 0.2
24,TAFF,0.261

row,Variant,one-hybrid fitness for binding NBS DNA
1,VSGI,≤ 0.2
2,IGSI,≤ 0.2
3,FSPT,≤ 0.2
4,IVRR,≤ 0.2
5,LVFS,≤ 0.2
6,DAGW,≤ 0.2
7,KIGR,≤ 0.2
8,LQKV,≤ 0.2
9,TAPY,≤ 0.2
10,FPRH,≤ 0.2
11,GQAT,≤ 0.2
12,KALG,≤ 0.2
13,KRWW,≤ 0.2
14,SNNP,≤ 0.2
15,CLDR,≤ 0.2
16,PIQR,≤ 0.2
17,KVNE,≤ 0.2
18,RIQQ,≤ 0.2
19,LSTR,≤ 0.2
20,PNAV,≤ 0.2
21,VSAM,≤ 0.2
22,YKPF,≤ 0.2
23,MSYG,≤ 0.2
24,SGAT,≤ 0.2

row,Variant,one-hybrid fitness for binding NBS DNA
1,QTEV,≤ 0.2
2,WQNS,≤ 0.2
3,WFPS,≤ 0.2
4,IGDS,≤ 0.2
5,PEAS,≤ 0.2
6,YGST,≤ 0.2
7,RMMY,≤ 0.2
8,DGDT,≤ 0.2
9,RNPF,≤ 0.2
10,HLTK,≤ 0.2
11,PECV,≤ 0.2
12,MLKS,≤ 0.2
13,QEHR,≤ 0.2
14,EPNG,≤ 0.2
15,TFGF,≤ 0.2
16,RIVH,≤ 0.2
17,KNYR,≤ 0.2
18,KNLK,≤ 0.2
19,FQDR,≤ 0.2
20,VEIC,≤ 0.2
21,CFHV,≤ 0.2
22,KYKG,≤ 0.2
23,LDQL,≤ 0.2
24,HNLA,≤ 0.2

row,Variant,one-hybrid fitness for binding NBS DNA
1,CTEA,≤ 0.2
2,YAQG,≤ 0.2
3,VGMG,≤ 0.2
4,RMTG,≤ 0.2
5,MGCL,≤ 0.2
6,NDNN,≤ 0.2
7,CTCE,≤ 0.2
8,WTIC,≤ 0.2
9,SQVH,≤ 0.2
10,RTDR,0.282
11,SQRV,≤ 0.2
12,GENQ,≤ 0.2
13,AVLK,≤ 0.2
14,QIIS,≤ 0.2
15,TNST,≤ 0.2
16,CYAR,≤ 0.2
17,ESTQ,≤ 0.2
18,FKLR,≤ 0.2
19,PWVS,≤ 0.2
20,SQQT,≤ 0.2
21,DQSG,≤ 0.2
22,LMHV,≤ 0.2
23,QAEP,≤ 0.2
24,VKDG,≤ 0.2

row,Variant,one-hybrid fitness for binding NBS DNA
1,DERG,≤ 0.2
2,RKGK,≤ 0.2
3,QFTC,≤ 0.2
4,KQTD,≤ 0.2
5,QIAF,≤ 0.2
6,QDSS,≤ 0.2
7,NWRT,≤ 0.2
8,THTN,≤ 0.2
9,NGLW,≤ 0.2
10,VMGG,≤ 0.2
11,QHKL,0.232
12,GGFE,≤ 0.2
13,CSVC,≤ 0.2
14,LPIC,≤ 0.2
15,RDKI,≤ 0.2
16,PQNG,≤ 0.2
17,IRSE,≤ 0.2
18,GIKM,≤ 0.2
19,NRYT,≤ 0.2
20,ITRD,≤ 0.2
21,PAFA,≤ 0.2
22,IIYN,≤ 0.2
23,DTQV,≤ 0.2
24,HRGP,≤ 0.2

row,Variant,one-hybrid fitness for binding NBS DNA
1,PCDK,≤ 0.2
2,MPNF,≤ 0.2
3,DQSA,≤ 0.2
4,LNPR,≤ 0.2
5,NSQE,≤ 0.2
6,GITT,≤ 0.2
7,RQQE,≤ 0.2
8,SMDN,≤ 0.2
9,QKPS,≤ 0.2
10,YHCG,≤ 0.2
11,NKDT,≤ 0.2
12,RKFI,≤ 0.2
13,DYIR,≤ 0.2
14,HIWE,≤ 0.2
15,HPIA,≤ 0.2
16,NEGN,≤ 0.2
17,KVSK,≤ 0.2
18,TLAP,≤ 0.2
19,SIPW,≤ 0.2
20,FMSG,≤ 0.2
21,GFLG,≤ 0.2
22,PQTM,≤ 0.2
23,VSCA,≤ 0.2
24,NDNR,≤ 0.2

row,Variant,one-hybrid fitness for binding NBS DNA
1,PDGI,≤ 0.2
2,SVIV,≤ 0.2
3,TSYC,≤ 0.2
4,FDPG,≤ 0.2
5,TPCG,≤ 0.2
6,NWER,≤ 0.2
7,RAHF,≤ 0.2
8,TNWA,≤ 0.2
9,QIRF,≤ 0.2
10,RYFS,≤ 0.2
11,NLTT,≤ 0.2
12,SYLH,≤ 0.2
13,YDFW,≤ 0.2
14,CCKR,≤ 0.2
15,RRRA,0.671
16,TMYI,≤ 0.2
17,GHLS,≤ 0.2
18,GLAW,≤ 0.2
